Results from the RNAGym collection of RNA variant scans (doi:10.1101/gad.245936.114).
This sample is rich in variants without activity.

B1: tRNA (parent)
chain: CUCUCGGUAGCCAAGUUGGUUUAAGGCGCAAGACUUUAAUUUAUCACUACGAAAUCUUGAGAUCGGGCGUUCGACUCGCCCCCGGGAGAUUUUUUCCUCGAGCAA

Variants of: B1
Assay: nonsense suppression (GFP-seq) (ratio to wild type); higher = more function; SUP4oc tRNA, yeast GFP reporter sort-seq
Method in brief: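 Raffinose/galactose medium with 80 mg/L adenine was used to grow yeast carrying genome-integrated tRNA variants (~3% random-mutation library), RFP, and a galactose-driven GFP ochre reporter. Cells went into GFP/RFP bins, which were Illumina-sequenced, and variants with ≥100 reads and ≥30 cells were scored. Nonsense suppression (GFPSEQ) is the per-bin median GFP/RFP weighted by estimated cell share and expressed relative to the unmutated parent tRNA.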

CUCACGGUAGCCCAGUUGGUUUAAGGCGCAAGACUUUAAUUUAUCACUACGAAAUCUUGAGAUCGGGCGUUCGACUCGCCCCUCGGAGAUUUUUUCCUCGAGCAA and CUUUCGGUAGCCAAGUUGGUUUAAGGCGCAAGACCUUAAUUUAUCACUACGAAAUCUUGAGAUCGGGCGUUCGACUCGCCCCCGGGAGAUUUUUUCCUCGAGCAA cannot be ordered by nonsense suppression: ≤ 0.026 for the first, ≤ 0.026 for the second.

Going from CUUUCGGUAGCCAAGUUGGUUUAAGGCGCAAGACAUUAAUUUAUCACUACGAAAUCUUGAGAUCGGGCGUUCGACUCGCCCCCGGGAGAUUUUUUCCUCGAGCAA to CUUUCGGUAGCCAAGUUGGGUUAAGGCGCAAGACUUUAAUUUAUCACUACGAAAUCUUGAGAUCGGGCGUUCGACUCGCCCCCGGGAGAUUUUUUCCUCGAGCAA, the nonsense suppression rises from ≤ 0.026 to 0.194.

CUUUCGGUAGCCAAGUUGGUUUAAGGCGCAAGACCUUAAUUUAUCACUACGAAAUCUUGAGAUCGGGCGUUCAACUCGCCCCCGGGAGAUUUUUUCCUCGAGCAA and CUUUCGGUAGCCAAGUUGGUUCAGGGCGCAAGACUUUAAUUUAUCACUACGAAAUCUUGAGAUCGGGCGUUCGACUCGCCCCCGGGAGAUUUUUUCCUCGAGCAA cannot be ordered by nonsense suppression: ≤ 0.026 for the first, ≤ 0.026 for the second.

Compared with CUUUCGGUAGCCAAGUUGGUUGCAGGCGCUAGACUUUAAUUUAUCACUACGAAAUCUUGAGAUCGGGCGUUCGACUCGCCCCCGGGAGAUUUUUUCCUCGAGCAA, CUUUCGGUAGCCAAGUUGGUUUAAGGCGCAAGACUUUAAUUUAUCACUACGAAAUCUUGAGAUCGGGCGUUCGACCCGCCCCCGGGAGAUUUUUUCCUCGAGCAA is higher in nonsense suppression: ≤ 0.026 for the first, 0.17 for the second.

CUCACGGUAGCCACGUUGGUUUAAGGCGCACGACUUUAAUUUAUCACUACGAAACCUUGAGAUCGGGCGUUCGACUCGCCCCCGGGAGAUUUUUUCCUCGAGCAA and CUUUCGGUAGCCAAGUUGGUUUAAGGCGCAAGACUUUAAUUUAUCACUACGAAAUCUUGAGAGCGGGCGUUCGACUCGCCCCCGGGAGAUUUUUUCCUCGAGCAA cannot be ordered by nonsense suppression: ≤ 0.026 for the first, ≤ 0.026 for the second.

CUUUCGGUAGCCAAGUUGGCUUAAGGCGCAAGACUUUAAUUUAUCACUACGAAAUCUUGAGAUCGGGCGUUCGACUCGCCCCCGGGACAUUUUUUCCUCGAGCAA and CUCACGGUGGCCAAGUUGGUUUAAGGCGCAAGACUUUAAUUUAUCACUACGAAAUCUUGAGAUCGGGCGUUCUACUUGCCCCCGGUAGAUUUUUUCCUCGAGCAA cannot be ordered by nonsense suppression: ≤ 0.026 for the first, ≤ 0.026 for the second.

CUUUCGGUAGCCAAGUUGGAUUAAGGCGCAAGAUUUUAAUUUAUCACUACGAAAUCUUGAGAUCGGGCGUUCAACUCGCCCCCGGGAGAUUUUUUCCUCGAGCAA and CUUUCGGUAGCCAAGUUGGGUUAAGGCGCAAGACUUUAAUUUAUCACUACGAAAUCUUAAGAUCGGGCGUUCGACUCGCCCCCGGGAGAUUUUUUCCUCGAGCAA cannot be ordered by nonsense suppression: ≤ 0.026 for the first, ≤ 0.026 for the second.

Going from CUUUCGGUAGCCAAGUGGGUUUAAGGCUCAAGACUUUAAUUUAUCACUACGAAAUCUUGAGAACGGGCGGUCGUCUCGCCCCCGGGAGAUUUUUUCCUCGAGCAA to CUCACGGUAGCCUAGUUGGUUUAAGGCGCAAGACUUUAAUUUAUCACUACGAAAUCUUGAGAUCGGGCGUUCGACUCGCCCCCGGGAGAUUUUUUCCUCGAGCAA, the nonsense suppression rises from ≤ 0.026 to 0.18.

CUCACGGUAGCCCAGUUGGUUUAAGGCGCAAGACUUUAAUUUAUCACUACGAAAUUUUGAGAUCGGGCGUUCGACUCGCCCCCGGGAGAUUUUUUCCUCGAGCAA and CUUUCGGUAGCCAAGUUGGUUUAAGGCGCAAGACUUUAAUUUAUCACUACGAAAUCUUGAGAUCGGGCGUACGACUCGCCCCCGGCAGAUUUUUUCCUCGAGCAA cannot be ordered by nonsense suppression: ≤ 0.026 for the first, ≤ 0.026 for the second.

CUUUCGGUAGCCAAGUUGGUUUAAGGCGCAAGACUUUAAUUUAUCACUACGAAAUCGUGAGAUCGGGCGUUCGACUCGCCCCCGGGAGAUUUUUUCCUCGAGCAA and CUUUCGGUAGCCAAGUUGGAUUAAGGCCCAAGACUUUAAUUUAUCACUACGAAAUGUUGAGAUCGGGCGUUCGACUCGCCCCCGGGAGAUUUUUUCCUCGAGCAA cannot be ordered by nonsense suppression: ≤ 0.026 for the first, ≤ 0.026 for the second.

Compared with CUUUCGGUAGCCAAGUUGGUUUAAGGCGCAAGACGUUAAUUUAUCACUACGAAAUCUUGAAAUCGGGCGUUCGACUCGCCCCCGGGAGAUUUUUUCCUCGAGCAA, CUUUCGGUAGCCAAGUUGGUGUAAGGCGCAAGACUUUAAUUUAUCACUACGAAAUCUUGAGAUCGGGCGUUCGACUCGCCCCCGCGAGAUUUUUUCCUCGAGCAA is higher in nonsense suppression: ≤ 0.026 for the first, 0.417 for the second.

Compared with CUUUCGGUAGCCAAGUUGGUUCAAGGCGCAAGACUUUAAUUUAUCACUACGAAAUCUUGAGAUCGGGCGUUCGACUCGCCCCCGGGCGAUUUUUUCCUCGAGCAA, CUUUCGGUAGCCAAGUUGGUUCAAGGCGCAAGACUUUAAUUUAUCACUACGAAAUCUUGAGAUCGGGCGUUCGACUCGCCCCCGGGAGAUUUUUUCCUCGAGCAA is higher in nonsense suppression: ≤ 0.026 for the first, 0.304 for the second.

CUUUCGGUAGCCAAGUUGGUUUAAGGCGCAAGACUUUAAUUUAUCACUACGAAAUCUUGAGACCGGGCGUUCGACUCGUCCCCGGGAGAUUUUUUCCUCGAGCAA and CUCACGGUUGCCAAGUUGGUUUAAGGCGCAAGACUUUAAUUUAUCACUACGAAAUCUUGAGAUCGGGCGUUCGACUCGCCCCAGGGAGAUUUUUUCCUCGAGCAA cannot be ordered by nonsense suppression: ≤ 0.026 for the first, ≤ 0.026 for the second.

In the case of CUCACGGUAGCCAGGUUGGUUUAAGGCGCAAGUAUUUAAUUUAUCACUACGAAAUCUUGAGAUCGGGCGUUCGACUUGCCCCCGGGAGAUUUUUUCCUCGAGCAA, the nonsense suppression is reported as ≤ 0.026.
